# Experimental data: the supplement of paper PMC8728848
# The other results are listed elsewhere or left out.
# How the values were obtained:
# Assay in all cases: glycan array binding signal (z-score within array); higher = stronger binding
# Conditions in all cases: glycan notation: IUPAC condensed, linker removed
# [1] = target: GlcNAc(b1-6)Gal(b1-4)GlcNAc
# Method in brief: (§1)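 The binding signal is a Z-score computed within each array and averaged over linkers. Arrays of the same protein sequence at different concentrations or buffers were also averaged together. Data originate from 3228 arrays in the Consortium for Functional Glycomics database, kept only where the protein sequence was available.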
# GlcNAc(b1-6)GalNAc = target: GlcNAc(b1-6)GalNAc
# Method in brief: as §1
# GlcNAc3Prop(b1-4)GlcNAc = target: GlcNAc3Prop(b1-4)GlcNAc
# Method in brief: as §1
# [2] = target: GlcNAc6S(b1-3)Gal(b1-4)GlcNAc
# Method in brief: as §1
# Kdn(a2-3)Gal(b1-3)GalNAc = target: Kdn(a2-3)Gal(b1-3)GalNAc
# Method in brief: as §1
# Kdn(a2-3)Gal(b1-3)GlcNAc = target: Kdn(a2-3)Gal(b1-3)GlcNAc
# Method in brief: as §1
# Kdn(a2-3)Gal(b1-4)Glc = target: Kdn(a2-3)Gal(b1-4)Glc
# Method in brief: as §1
# Kdn(a2-3)Gal(b1-4)GlcNAc = target: Kdn(a2-3)Gal(b1-4)GlcNAc
# Method in brief: as §1
# [3] = target: Kdn(a2-3)Gal(b1-4)[Fuc(a1-3)]GlcNAc
# Method in brief: as §1
# Kdn(a2-6)Gal(b1-4)GlcNAc = target: Kdn(a2-6)Gal(b1-4)GlcNAc
# Method in brief: as §1
# [4] = target: Man(a1-2)Man(a1-2)Man(a1-3)Man
# Method in brief: as §1
# [5] = target: Man(a1-2)Man(a1-2)Man(a1-6)[Man(a1-3)]Man
# Method in brief: as §1
# Man(a1-2)Man(a1-3)Man = target: Man(a1-2)Man(a1-3)Man
# Method in brief: as §1
# [6] = target: Man(a1-2)Man(a1-3)[Man(a1-2)Man(a1-6)]Man
# Method in brief: as §1
# [7] = target: Man(a1-2)Man(a1-3)[Man(a1-2)Man(a1-6)]Man(a1-6)[Man(a1-2)Man(a1-2)Man(a1-3)]Man
# Method in brief: as §1
# [8] = target: Man(a1-2)Man(a1-3)[Man(a1-2)Man(a1-6)]Man(a1-6)[Man(a1-2)Man(a1-2)Man(a1-3)]Man(b1-4)GlcNAc(b1-4)GlcNAc
# Method in brief: as §1
# [9] = target: Man(a1-2)Man(a1-3)[Man(a1-6)]Man(a1-6)[Man(a1-2)Man(a1-3)]Man(b1-4)GlcNAc(b1-4)GlcNAc
# Method in brief: as §1
# [10] = target: Man(a1-2)Man(a1-6)[Man(a1-3)]Man(a1-6)[Man(a1-2)Man(a1-2)Man(a1-3)]Man
# Method in brief: as §1
# [11] = target: Man(a1-2)Man(a1-6)[Man(a1-3)]Man(a1-6)[Man(a1-2)Man(a1-2)Man(a1-3)]Man(b1-4)GlcNAc(b1-4)GlcNAc
# Method in brief: as §1
# Man(a1-3)[Man(a1-6)]Man = target: Man(a1-3)[Man(a1-6)]Man
# Method in brief: as §1
# [12] = target: Man(a1-3)[Man(a1-6)]Man(a1-6)[Man(a1-2)Man(a1-3)]Man(b1-4)GlcNAc(b1-4)GlcNAc
# Method in brief: as §1
# [13] = target: Man(a1-3)[Man(a1-6)]Man(a1-6)[Man(a1-3)]Man
# Method in brief: as §1
# [14] = target: Man(a1-3)[Man(a1-6)]Man(a1-6)[Man(a1-3)]Man(b1-4)GlcNAc(b1-4)GlcNAc
# Method in brief: as §1
# [15] = target: Man(a1-3)[Man(a1-6)]Man(b1-4)GlcNAc(b1-4)GlcNAc
# Method in brief: as §1
# [16] = target: Man(a1-3)[Man(a1-6)]Man(b1-4)GlcNAc(b1-4)[Fuc(a1-6)]GlcNAc
# Method in brief: as §1
# Man(a1-6)Man = target: Man(a1-6)Man
# Method in brief: as §1
# Man(b1-4)GlcNAc = target: Man(b1-4)GlcNAc
# Method in brief: as §1
# MurNAc(b1-4)GlcNAc = target: MurNAc(b1-4)GlcNAc
# Method in brief: as §1
# Neu5Ac(a2-3)Gal = target: Neu5Ac(a2-3)Gal
# Method in brief: as §1
# [17] = target: Neu5Ac(a2-3)Gal(b1-3)GalNAc
# Method in brief: as §1
# [18] = target: Neu5Ac(a2-3)Gal(b1-3)GalNAc(b1-3)Gal(a1-4)Gal(b1-4)Glc
# Method in brief: as §1
# [19] = target: Neu5Ac(a2-3)Gal(b1-3)GalNAc(b1-4)[Neu5Ac(a2-3)]Gal(b1-4)Glc
# Method in brief: as §1
# [20] = target: Neu5Ac(a2-3)Gal(b1-3)GalNAc(b1-4)[Neu5Ac(a2-8)Neu5Ac(a2-3)]Gal(b1-4)Glc
# Method in brief: as §1
# [21] = target: Neu5Ac(a2-3)Gal(b1-3)GalNAc6S
# Method in brief: as §1
# [22] = target: Neu5Ac(a2-3)Gal(b1-3)GlcNAc
# Method in brief: as §1
# [23] = target: Neu5Ac(a2-3)Gal(b1-3)GlcNAc(b1-2)Man
# Method in brief: as §1
# [24] = target: Neu5Ac(a2-3)Gal(b1-3)GlcNAc(b1-2)Man(a1-3)[GlcNAc(b1-4)][Neu5Ac(a2-3)Gal(b1-3)GlcNAc(b1-2)Man(a1-6)]Man(b1-4)GlcNAc(b1-4)GlcNAc
# Method in brief: as §1
binder,measurement,setting,value
"Gal 9 (Homo sapiens), O00182 (protein) MAFSGSQAPYLSPAVPFSGTIQGGLQDGLQITVNGTVLSSSGTRFAVNFQTGFSGNDIAFHFNPRFEDGGYVVCNTRQNGSWGPEERKTHMPFQKGMPFDLCFLVQSSDFKVMVNGILFVQYFHRVPFHRVDTISVNGSVQLSYISFQNPRTVPVQPAFSTVPFSQPVCFPPRPRGRRQKPPGVWPANPAPITQTVIHTVQSAPGQMFSTPAIPPMMYPHPAYPMPFITTILGGLYPSKSILLSGTVLPSAQRFHINLCSGNHIAFHLNPRFDENAVVRNTQIDNSWGSEERSLPRKMPFVRGQSFSVWILCEAHCLKVAVDGQHLFEYYHRLRNLPTINRLEVGGDIQLTHVQT",glycan array binding signal (z-score),[1],-0.313
same,glycan array binding signal (z-score),GlcNAc(b1-6)GalNAc,-0.31
same,glycan array binding signal (z-score),GlcNAc3Prop(b1-4)GlcNAc,-0.333
same,glycan array binding signal (z-score),[2],-0.202
same,glycan array binding signal (z-score),Kdn(a2-3)Gal(b1-3)GalNAc,-0.314
same,glycan array binding signal (z-score),Kdn(a2-3)Gal(b1-3)GlcNAc,-0.281
same,glycan array binding signal (z-score),Kdn(a2-3)Gal(b1-4)Glc,-0.315
same,glycan array binding signal (z-score),Kdn(a2-3)Gal(b1-4)GlcNAc,-0.281
same,glycan array binding signal (z-score),[3],-0.312
same,glycan array binding signal (z-score),Kdn(a2-6)Gal(b1-4)GlcNAc,-0.312
same,glycan array binding signal (z-score),[4],-0.315
same,glycan array binding signal (z-score),[5],-0.312
same,glycan array binding signal (z-score),Man(a1-2)Man(a1-3)Man,-0.327
same,glycan array binding signal (z-score),[6],-0.305
same,glycan array binding signal (z-score),[7],-0.311
same,glycan array binding signal (z-score),[8],-0.301
same,glycan array binding signal (z-score),[9],-0.328
same,glycan array binding signal (z-score),[10],-0.321
same,glycan array binding signal (z-score),[11],-0.321
same,glycan array binding signal (z-score),Man(a1-3)[Man(a1-6)]Man,-0.316
same,glycan array binding signal (z-score),[12],-0.263
same,glycan array binding signal (z-score),[13],-0.309
same,glycan array binding signal (z-score),[14],-0.32
same,glycan array binding signal (z-score),[15],-0.313
same,glycan array binding signal (z-score),[16],-0.283
same,glycan array binding signal (z-score),Man(a1-6)Man,-0.31
same,glycan array binding signal (z-score),Man(b1-4)GlcNAc,-0.319
same,glycan array binding signal (z-score),MurNAc(b1-4)GlcNAc,-0.279
same,glycan array binding signal (z-score),Neu5Ac(a2-3)Gal,-0.321
same,glycan array binding signal (z-score),[17],-0.323
same,glycan array binding signal (z-score),[18],-0.153
same,glycan array binding signal (z-score),[19],-0.315
same,glycan array binding signal (z-score),[20],-0.323
same,glycan array binding signal (z-score),[21],-0.34
same,glycan array binding signal (z-score),[22],-0.251
same,glycan array binding signal (z-score),[23],-0.253
same,glycan array binding signal (z-score),[24],-0.281
